From PMC6919601, “Identification of Plasmodium dipeptidyl aminopeptidase allosteric inhibitors by high throughput screening” (PLoS ONE, 2019)
“And” between values parts separate entries of the source, which are not always exact repeats. Equal values may be shown once. The whole screen tested about 110,000 compounds, of which about 230 (0.21%) showed an effect of 50% or more. This is one part of the list.

These compounds were tested against DPAP1 (Plasmodium falciparum, UniProt Q8IIJ9) (assay: primary screen, percent inhibition; read by cleavage of a fluorogenic dipeptide substrate; higher = more effect of the substance).
Chain of DPAP1 (Q8IIJ9 whole entry, looked up): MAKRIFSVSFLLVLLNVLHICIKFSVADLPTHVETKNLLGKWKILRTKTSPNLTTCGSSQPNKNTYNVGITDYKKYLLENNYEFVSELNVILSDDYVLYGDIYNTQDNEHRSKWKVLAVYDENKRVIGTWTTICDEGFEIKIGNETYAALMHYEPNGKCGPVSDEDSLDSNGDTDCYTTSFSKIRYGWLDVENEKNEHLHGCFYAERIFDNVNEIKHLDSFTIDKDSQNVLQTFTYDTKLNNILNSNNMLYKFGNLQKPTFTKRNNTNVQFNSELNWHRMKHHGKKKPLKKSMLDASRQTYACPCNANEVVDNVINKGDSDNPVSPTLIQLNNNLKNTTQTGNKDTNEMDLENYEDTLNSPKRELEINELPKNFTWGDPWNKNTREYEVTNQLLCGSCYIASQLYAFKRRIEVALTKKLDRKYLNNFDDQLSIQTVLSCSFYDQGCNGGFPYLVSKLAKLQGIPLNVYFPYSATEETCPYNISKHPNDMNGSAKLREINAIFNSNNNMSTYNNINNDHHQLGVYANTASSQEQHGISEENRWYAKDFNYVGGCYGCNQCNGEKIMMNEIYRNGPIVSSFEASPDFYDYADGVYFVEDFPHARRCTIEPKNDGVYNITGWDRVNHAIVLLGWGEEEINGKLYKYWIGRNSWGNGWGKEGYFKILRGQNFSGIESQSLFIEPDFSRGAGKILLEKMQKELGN
Design: species or system P. falciparum D10 trophozoite lysates; single well
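Note: 30 min substrate incubation versus DMSO and 10 µM JCP410 controls.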

Row | SMILES | % Inhibition @ 10 uM
1 | CCOc1cccc2cc(-c3nc(-c4cc(OC)c(OC)c(OC)c4)no3)c(=O)oc12 | 9.86%
2 | CC1=NN(c2ccccc2)C(c2ccccc2)C1 (centres unmarked) | 5.37%
3 | Cc1cc(Br)ccc1NC(=O)Cn1nc(C(F)F)cc1C | -4.82%
4 | Cc1cc(C)c(C(=O)/C(=C/c2ccco2)c2ccccc2)c(O)n1 | 15.4%
5 | O=C(Nc1ccc2c(c1)OCCO2)c1cccc(C(=O)Nc2ccc3c(c2)OCCO3)c1 | -6.38%
6 | Cc1cc(C)n(-c2nc3ccccc3nc2N2CCN(S(=O)(=O)c3cccc(C#N)c3)CC2)n1 | -0.0709%
7 | CCOCCCNc1ncnc2oc(C)c(C(=O)O)c12 | -7.65%
8 | O=S(=O)(c1ccc2c3c(cccc13)CC2)N1CCN(Cc2ccccc2)CC1 | 1.76%
9 | CN(Cc1ccco1)S(=O)(=O)c1nnc(NC(=O)CN2C(=O)c3ccccc3C2=O)s1 | 5.8%
10 | Cc1ccc(Cn2c(SCc3ccc(C(=O)NCc4cccnc4)cc3)nc3ccncc32)cc1 | -2.37%
11 | COc1ccc2c(CNCc3ccc(OC(C)C)cc3)c(C(=O)O)n(Cc3ccccc3C)c2c1 | 4.14%
12 | COC(=O)C1=CN(CCc2ccccc2)C=C(C(=O)OC)C1c1ccc(C)s1 | -5%
13 | Clc1ccc(CN2CCN(Cc3ccc(Cl)cc3)CC2)cc1 | -4.7%
14 | CC1CCCC(C)N1C(=O)c1cccc(C(=O)N2C(C)CCCC2C)n1 (centres unmarked) | -0.67%
15 | CC[n+]1c(C)n(CC(O)COc2ccc(F)cc2)c2ccccc21 (centres unmarked) | 1.84%
16 | COc1ccc(CN2CCN(C(=O)c3ccc(F)cc3)CC2)cc1Br | 8.09%
17 | Cc1cc(C)c(S(=O)(=O)c2ccccc2C(=O)O)c(C)c1 | 5.68%
18 | COCC1=C(C(=O)OC)C(c2cccc3ccccc23)C(C#N)=C(N)O1 (centres unmarked) | -7.3%
19 | CCCCN(CCCNC(=O)Cn1nc(-c2ccccc2)ccc1=O)Cc1ccccc1 | 3.79%
20 | COc1ccccc1CNC(C)Cc1cccc(C(F)(F)F)c1 (centres unmarked) | -1.21%
21 | CCN1CCCC1CNC(=O)Cn1nc(C)n2c(cc3cc(F)ccc32)c1=O (centres unmarked) | 6.35%
22 | Cc1nc2sccn2c(=O)c1N | -5.05%
23 | Nc1c(C(=O)N2CCc3ccccc3C2)sc2nc3c(cc12)CCCCCC3 | 6.08%
24 | CCCN1C(=O)NC2C1NC(=O)N2CCC (centres unmarked) | 20.5%
25 | COc1ccccc1OCC(=O)N(Cc1ccccc1F)C1CCS(=O)(=O)C1 (centres unmarked) | -3.12%
26 | CCOc1cccc(C(=O)Nc2cc(-c3nc4ncccc4o3)ccc2Cl)c1 | 1.52%

Row | SMILES | % Inhibition @ 10 uM
27 | CCc1ccc(OCC(=O)Nc2cccc(C#N)c2)c(Br)c1 | 0.472%
28 | Cc1nc2nc(COc3ccccc3)nn2c(O)c1C | 1%
29 | Cn1c(CN2CCN(Cc3ccccc3)CC2)c(C#N)c2ccccc21 | 17.5%
30 | Cc1n[nH]c(C)c1CCCCCOc1ccccc1 | 0.0792%
31 | CC(C)C(C(=O)NCCN(C)C)c1ccccc1 (centres unmarked) | -13%
32 | Cc1ccc(S(=O)(=O)NC(C)C2C3CC4CC(C3)CC2C4)c(C)c1 (centres unmarked) | -3.75%
33 | COC(=O)c1[nH]c2cc(OC)ccc2c1NS(=O)(=O)c1ccc2nc(O)sc2c1 | -1.24%
34 | Cc1cccc(-c2nnc3sc(NC(=O)C(C)C)nn23)c1 | 1.07%
35 | CN1CCN(C(=O)Cn2ncc3c4ccccc4n(Cc4ccccc4)c3c2=O)CC1 | 4.95%
36 | CCCCc1c(C)nc2ccc(OC)cc2c1S | -0.267%
37 | CCN(CC)CCCNC(=O)c1ccc2c(c1)sc1nc(-c3ccc(OC)cc3)cn12 | 3.27%
38 | O=C(C1CCCC1)N1CCN(c2ccc(F)cc2)CC1 | 5.31%
39 | COc1cccc(C2C(C(=O)Nc3cccnc3)=C(C)Nc3nc(-c4cccs4)nn32)c1 (centres unmarked) | -7.96%
40 | CC1(C)CC(=O)c2cc(OCC(=O)NCC3CCCO3)ccc2O1 (centres unmarked) | 1.37%
41 | CN(C)/C=C1\C(=O)c2ccccc2OC1C1CCCCC1 (centres unmarked) | -8.92%
42 | CCN(CCN(C)C)Cc1ccc(F)c(F)c1 | 3.04%
43 | Cc1ccc(C)c(NC(=O)CSc2ccccn2)c1 | 1.01%
44 | Cc1nc2ccc(S(=O)(=O)NCC(=O)N3CCC(N4CCCCC4)CC3)cc2s1 | 2.57%
45 | COc1ccc(-c2noc(CN(C(=O)C(C)Oc3ccc(C)cc3)C(C)C)n2)cc1OC (centres unmarked) | 0.558%
46 | Cn1c(C(=O)NCCCN2CCCC2=O)cc2sccc21 | -6.91%
47 | O=C(O)c1ccc(/C=C/C(=O)c2ccc3c(c2)OCCO3)cc1 | 1.84% and 3.43%
48 | CCOC(=O)N1CCC(NC(=O)c2oc(=O)c3ccccc3c2-c2ccccc2)CC1 | -3.35%
49 | CCOC(=O)C1=C(C)N=c2s/c(=C/c3ccc4c(c3)OCO4)c(=O)n2C1c1cccs1 (centres unmarked) | 4.54%
50 | OCCN1CCN(C/C=C/c2ccccc2)CC1 | -3.57%
51 | Cc1ccc(NC(=O)c2ccc(N3C(=O)c4ccc(C(=O)O)cc4C3=O)cc2)cc1 | 5.64%
52 | COc1ccc(/C=C2/N=C(c3cc(Cl)ccc3OC)OC2=O)cc1 | -2.27%

Row | SMILES | % Inhibition @ 10 uM
53 | CC1CCCC(N2CCN(C/C=C/c3ccccc3)CC2)C1 (centres unmarked) | -0.414%
54 | O=C(Nc1cc([N+](=O)[O-])ccc1Cl)c1cccc([N+](=O)[O-])c1 | 12.2%
55 | CCCC1=NC(C)(C)Cc2cc(OC)c(OC)cc21 | 23.4%
56 | COc1ccc(-c2cc(C)no2)cc1S(=O)(=O)NCCCc1ccco1 | -0.342%
57 | COc1ccc(CC(=O)Nc2ccc(N(C)C(C)=O)cc2)cc1 | 2.27%
58 | CCOC(=O)C1=CN(C)C=C(C(=O)OCC)C1c1cc(Br)c(OCC)c(OC)c1 | -3.23%
59 | O=C1CC(Nc2ccc(F)cc2)C(=O)N1c1ccc(Cl)c(Cl)c1 (centres unmarked) | -13.5%
60 | COc1ccc(/C=C/C(=O)c2ccc(Cl)c(Cl)c2)c(OC)c1 | 4.18%
61 | O=C(Nc1cccc(F)c1)c1ccc(Cl)cc1 | -1.92%
62 | COC(=O)/C(=C/c1ccco1)NC(=O)c1ccc(OCC(C)C)cc1 | -0.0626%
63 | COc1cccc(/C=C2\SC(N3CCN(C)CC3)=NC2=O)c1OC | 5.3%
64 | OCC1CCCN1Cc1ccc(F)cc1 (centres unmarked) | -2.34%
65 | CCn1cc(C(=O)Nc2c(C)nn(Cc3ccccc3Cl)c2C)cn1 | 7.06%
66 | N#Cc1c(SCC(=O)Nc2ccccn2)nsc1SCC(=O)Nc1ccccn1 | 6.08%
67 | COc1cc(C2C(C(=O)c3ccc4c(c3)CC(C)O4)=C(O)C(=O)N2CC2CCCO2)ccc1O (centres unmarked) | 6.15%
68 | COc1ccc(C(=O)NCC(C)NC(=O)c2ccc(OC)cc2)cc1 (centres unmarked) | 0.54%
69 | CCN1CCN(c2cc(C)c3cccc(SC)c3n2)CC1 | -3.74%
70 | Cc1ccc(S(=O)(=O)CCc2ccncc2)cc1 | 0.266%
71 | O=C(NCCN1CCOCC1)c1cc2nc(-c3cccs3)cc(C(F)(F)F)n2n1 | -12.1%
72 | c1ccc(CNc2ccc3ccccc3n2)nc1 | -6.88%
73 | COCc1nc(-c2ccc(-c3ccc(OC)cc3)nc2OC)no1 | -5%
74 | COC(=O)c1cnn2c1NCN(Cc1cccs1)C2 | -1.3%
75 | CCCCOc1ccc(Cc2nnc(S)n2N)cc1 | -1.68%
76 | CC(=O)C1=C(C)NC(SCc2ccccc2)=C(C#N)C1c1ccc(Cl)cc1 (centres unmarked) | 7.12%
77 | COc1cc2c(cc1OC)C(C(=O)NCCC1=CCCCC1)C(c1ccccc1F)N(C)C2=O (centres unmarked) | 3.33%
78 | CCN1C(=O)N/C(=C/c2cc(C)n(-c3ccccc3Br)c2C)C1=O | -9.66%

Row | SMILES | % Inhibition @ 10 uM
79 | O=C1[C@@H]2N=C(c3ccccc3)O[C@@H]2C[C@H](CCO)N1Cc1ccccc1 | 0.235%
80 | C=CCNC(=O)C(C)N1C(=O)c2ccccc2C1=O (centres unmarked) | -4.12%
81 | COc1ccc(C(=N)NOC(=O)Cc2ccc(Cl)cc2)cc1OC | -5.08%
82 | CCOc1cccc(=O)c2c(C)oc(C)c12 | 0.162%
83 | Cc1ccccc1N/C=C1/C(=O)NC(=O)N(c2ccc(Cl)cc2)C1=O | -8.63%
84 | OCCN1CCN(c2ncnc3ccc(Br)cc23)CC1 | 0.67%
85 | CCOc1ccc(CCN2CNc3c(c(=O)n(C)c(=O)n3C)C2)cc1 | 2.34%
86 | Cc1[nH]cnc1CN1CCCCCCC1 | -1.64%
87 | C=CCOC(=O)C1=C(C)N=C(C)/C(=C(/O)OCC=C)C1c1ccc(OC)c(OC)c1 (centres unmarked) | -1.93%
88 | Cc1ccc(C)c(CN2CCC(CN3CNc4c(c(=O)n(C)c(=O)n4C)C3)CC2)c1 | -4.74%
89 | CC(=O)Nc1cccc(NC(=O)c2cccc(Br)c2)c1 | 6.25%
90 | Cn1c(=O)c2nc(NC3CCCC3)[nH]c2n(C)c1=O | -1.18%
91 | Cc1ccc(C(C(=O)NCc2ccccc2)N(Cc2ccco2)C(=O)Cn2nnc3ccccc32)cc1 (centres unmarked) | 5.29%
92 | CC1CN(C2CCN(Cc3ccccc3)CC2)CC(C)O1 (centres unmarked) | 3.19%
93 | CCOC(=O)c1ccc(NC(=O)C(F)(OC)C(F)(F)F)cc1 (centres unmarked) | -0.0619%
94 | Cc1cc(C)c(C#N)c(SCc2cc3c(cc2Cl)OCO3)n1 | -4.76%
95 | CC1=C(c2ccc(C(C)C)cc2)S(=O)(=O)N=C1NCCCc1ccccc1 | 5.42%
96 | O=c1cc(C2Nc3ccccc3N=C3CC(c4cccs4)CC(O)=C32)oc2ccccc12 (centres unmarked) | -2.88%
97 | CCN(C(=O)COc1ccc(Br)c(C)c1)c1ccccc1 | -5.29%
98 | CC1CN(c2ncnc3sc4c(c23)CCCCC4)CC(C)O1 (centres unmarked) | -2.32%
99 | CCOC(=O)c1c(NC(=O)CN2C(=O)S/C(=C\c3ccc(F)cc3)C2=O)sc2c1CCCC2 | -2.27%
100 | CCCCCN1CCN(c2nc(-c3ccccc3)c3cc(C)ccc3n2)CC1 | -1.99%
101 | CCOC(=O)c1nc(Cn2c(C(F)(F)F)nc3ccccc32)no1 | -0.92%
